Assay results as given in PubChem BioAssay AID485344 (National Center for Advancing Translational Sciences (NCATS), 2010).
Out of some 340,000 compounds screened, about 6,900 (2%) were called active. Rule as the data show it: active = inhibition above about 30%; inactive = below that, where a call was filed. The list shows a part of the results, in another mix than the full data. The source gives no active or inactive call for entries shown without one.

molecular target: D(2) dopamine receptor (Homo sapiens) (UniProt P14416); assay: HTS Assay for Allosteric Antagonists of the Human D2 Dopamine Receptor: Primary Screen for Antagonists; conditions: HEK293 TREx D2 cells, calcium flux, dopamine EC80; at 10 µM; stronger effect = higher value; also: 0% is about no effect
In short: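 Read-out: kinetic calcium fluorescence (1 cycle/s) in inducible HEK293 T-REx D2 cells after an EC80 dopamine addition that followed 180 s compound preincubation. Loss of the dopamine response indicates antagonism.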

Sequence of UniProt P14416 (P14416 whole entry, looked up): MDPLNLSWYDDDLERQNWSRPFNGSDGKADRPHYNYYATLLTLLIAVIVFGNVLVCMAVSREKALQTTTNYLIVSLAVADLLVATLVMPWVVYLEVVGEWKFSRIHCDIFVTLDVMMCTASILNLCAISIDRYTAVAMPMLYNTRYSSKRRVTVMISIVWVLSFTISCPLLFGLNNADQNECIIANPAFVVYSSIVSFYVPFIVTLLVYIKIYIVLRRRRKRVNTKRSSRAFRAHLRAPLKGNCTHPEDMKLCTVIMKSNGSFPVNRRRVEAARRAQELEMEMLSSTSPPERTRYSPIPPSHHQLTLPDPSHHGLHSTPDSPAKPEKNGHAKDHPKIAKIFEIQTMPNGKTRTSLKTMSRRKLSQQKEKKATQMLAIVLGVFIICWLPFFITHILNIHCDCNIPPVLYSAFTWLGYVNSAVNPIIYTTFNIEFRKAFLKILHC

First: CCOC(=O)c1cnc2c(ccc3ccccc32)c1Nc1ccc(Cl)cc1
Second: Cc1ccc2nc(-c3cccc(NC(=O)c4cccc5ccccc45)c3)oc2c1
The inhibition of the first is higher: 11.6% for the first, 7.81% for the second.

First: CC(=O)Nc1ccc(NS(=O)(=O)c2c(C)nc3sccn3c2=O)cc1
Second: Cc1cccn2c(=O)c(C(=O)NCCc3ccc(S(N)(=O)=O)cc3)c(O)nc12
The inhibition of the first is lower: 13.6% for the first, 15.6% for the second.

Going from `CCOc1ccc(CNC(=O)C2CCCN(S(=O)(=O)N(C)c3ccc(F)cc3)C2)cc1OC` (centres undefined) to `Cc1ccc(Cn2c(C(=O)O)c(CNC3CCCC3)c3ccc(C)cc32)cc1`, the inhibition falls from 2.06% to -2.41%.

Going from `Cc1ccc(-n2ncc3c(Nc4ccccc4C)ncnc32)cc1` to `COc1ccc(Nc2ncnc3c2cnn3-c2ccc(C)cc2)cc1Cl`, the inhibition falls from 0.816% to -0.472%.

First: COc1cccc(Cn2c(NCc3ccc(C)cc3)nc3c2c(=O)n(C)c(=O)n3C)c1
Second: COc1ccc(CNC(=O)Cn2c(=O)cc(-c3ccccc3)c3c(C)nn(C)c32)cc1
The inhibition of the first is lower: -10.4% for the first, -3.3% for the second.

Going from `CCc1ccccc1Nc1nc2cc(Cl)c(Cl)cc2nc1-n1nc(C)cc1C` to `CCc1ccccc1Nc1nc2ccccc2n2cnnc12`, the inhibition rises from -9.79% to 4.2%.

First: CCOc1ccc(C(=O)c2cnc3ccc(Cl)cc3c2S(=O)(=O)c2ccc(C)cc2)cc1
Second: Cc1ccc(OCc2ccc(-c3nc(C#N)c(NCc4ccccc4Cl)o3)o2)cc1
The inhibition of the first is lower: 2.05% for the first, 5.53% for the second.

Compared with `Cc1ccc(-n2nc(CO)c(C(=O)NCCCc3ccccc3)n2)cc1`, `Cc1ccc(Cl)cc1NC(=O)CSc1nc2ccccc2nc1Cc1ccccc1` is higher in inhibition: -3.27% for the first, 16.8% for the second.

Compared with `Cc1ccc(-n2nc(C(=O)Nc3ccc(C)c(F)c3)c3c4ccccc4n(C)c3c2=O)cc1`, `Cc1ccc(-n2c(=O)c3c(cnn3C)n(CC(=O)Nc3ccccc3C)c2=O)cc1` is lower in inhibition: -6.48% for the first, -8.71% for the second.

Going from `COc1ccc(-n2c(=O)c3ccccc3n(Cc3ccccc3C)c2=O)c(OC)c1` to `O=c1c2ccccc2n(Cc2ccccc2F)c(=O)n1-c1cccc(F)c1`, the inhibition rises from -23.1% to 10.6%.

Compared with `CC(=O)Nc1nonc1-c1nnc(SCC(=O)Nc2ccc(C)c(Cl)c2)n1-c1ccccc1`, `CN1c2ccc(Cl)cc2-c2nc(SCC(=O)NCc3ccccc3)ncc2S1(=O)=O` is lower in inhibition: 11.6% for the first, -13.8% for the second.

Going from `COc1ccc(C(=O)N2CCC(c3nc(-c4ccc(S(=O)(=O)N5CCCC5)cc4)no3)CC2)cc1` to `O=C(O)Cn1ccc2cc(S(=O)(=O)N3CCCCCC3)ccc21`, the inhibition falls from -6.33% to -6.64%.

First: COC(=O)c1cc2occc2n1Cc1cccc(C)c1
Second: Cc1cccc(Cn2cc(S(=O)(=O)c3cccc(C)c3)c(=O)c3cc(F)c(N4CCOCC4)cc32)c1
The inhibition of the first is higher: -10.2% for the first, -12% for the second.

First: COc1ccc(C(=O)Nc2ccc(-c3nc4ccccc4s3)cc2C)cc1Cl
Second: Cc1cccc(NC(=O)c2ccc(-c3nc(CSc4ccccc4)c(C)o3)cc2)c1C
The inhibition of the first is lower: -15.4% for the first, 8.66% for the second.

Going from `COc1ccccc1CNC(=O)c1cnc2sc(N3CCCCCC3)nn2c1=O` to `COc1cccc(CNC(=O)c2cnc(N3CCCCC3)c3ccccc23)c1`, the inhibition falls from -3.88% to -28.5%.

Going from `O=C(CSc1nnc2ccc3ccccc3n12)c1ccc(F)cc1` to `Fc1ccc(Cn2c(-c3cccc(Br)c3)nc3ccccc32)cc1`, the inhibition falls from -19.5% to -26.8%.

Compared with `Cc1ccc(C(=O)Nc2onc3c2CCCC3)cc1`, `COc1ccc(C(=O)Nc2noc3ccccc23)cc1` is higher in inhibition: -17.2% for the first, 2.35% for the second.

Going from `Cc1nc2sc(C(N)=O)c(N)c2c(-c2ccc(Br)cc2)c1C(=O)Nc1ccc(Cl)cc1` to `O=C(Nc1c2c(nn1-c1ccc(Cl)cc1)CS(=O)(=O)C2)c1ccccc1F`, the inhibition rises from -6.87% to -1.52%.

Compared with `CSc1ccc(CNC(=O)CCn2c(=O)c3cccn3c3ccc(F)cc32)cc1`, `COc1ccc(CCNC(=O)CCn2c(=O)c3cccn3c3cccnc32)cc1OC` is higher in inhibition: -3.43% for the first, 10.2% for the second.

First: Cc1ccccc1C(=O)Nc1ccc2c(c1)CCCN2C(=O)c1cccs1
Second: COc1ccc(C)cc1NC(=O)C(Cc1ccccc1)NS(=O)(=O)c1cccs1 (centres undefined)
The inhibition of the first is lower: 3.44% for the first, 17.1% for the second.

First: CCn1ccc2cc(S(=O)(=O)N3CCCN(C(=O)NCCOC)CC3)ccc21
Second: Cc1cccc(N2CCN(S(=O)(=O)c3ccc4c(c3)CC(=O)N4C)CC2)c1C
The inhibition of the first is lower: -13.3% for the first, 7.22% for the second.

First: CCOC(=O)C1=C(CN2CCN(c3cc(C)ccc3C)CC2)NC(=O)NC1c1ccc(Cl)cc1 (centres undefined)
Second: Cc1ccc(C)c(CN2C(=O)c3ccccc3S(=O)(=O)c3ccc(C(=O)N4CCN(c5ccccc5F)CC4)cc32)c1
The inhibition of the first is higher: 25.5% for the first, 3.64% for the second.

Compared with `COc1cccc(NC(=O)Cn2c(=O)n(CCCCC(=O)NCCc3ccccc3)c(=O)c3ccccc32)c1`, `COC(=O)c1ccccc1NC(=O)c1ccc2nc(CCc3ccccc3)oc2c1` is higher in inhibition: -22.6% for the first, -22.5% for the second.

First: CCS(=O)(=O)N1CCc2cc(C(=O)Nc3cc(C(F)(F)F)ccc3Cl)ccc21
Second: O=C(Nc1ccc(Cl)c(C(F)(F)F)c1)C1CCN(S(=O)(=O)c2cccc3nonc23)CC1
The inhibition of the first is lower: -17% for the first, 17% for the second.

First: COc1ccc(CNC(=O)CCc2nnc3n(CC(C)C)c(=O)c4ccccc4n23)cc1
Second: COc1ccc(CNC(=O)COCc2cc(-c3cccs3)on2)cc1
The inhibition of the first is higher: 8.44% for the first, -6.74% for the second.

Compared with `CCOC(=O)c1ccc(NC(=O)COC(=O)c2cn(CC)c3nc(C)ccc3c2=O)cc1`, `CCCCn1c(=NC(=O)c2cc3ccccc3o2)c(C(=O)OCC)cc2c(=O)n3ccccc3nc21` is higher in inhibition: -12.4% for the first, -6.71% for the second.

Going from `COc1ccccc1-n1nc(-c2ccccc2)c2cnc3cc(C(F)(F)F)ccc3c21` to `Cc1nn2c(C)c(C(=O)NCC(C)c3ccccc3)cnc2c1-c1ccccc1` (centres undefined), the inhibition rises from -21.7% to 2.28%.

Compared with `CC1CN(S(=O)(=O)c2ccc3c(c2)NC(=O)CC(=O)N3)c2ccccc2O1` (centres undefined), `CCCCN(c1ccccc1)S(=O)(=O)c1ccc2c(c1)CC(C)N2C(=O)C1CC1` (centres undefined) is lower in inhibition: 5.9% for the first, 3.51% for the second.

First: COc1ccc(-c2oc3ncn4nc(-c5ccccc5C)nc4c3c2-c2ccc(OC)cc2)cc1
Second: COc1ccc(NC(=O)CSc2nc(-c3ccco3)nc3cc(=O)[nH]n23)cc1
The inhibition of the first is lower: -1.48% for the first, 0.45% for the second.

Compared with `Cc1cccc(C)c1OC(=O)CSc1nnc(-c2cccs2)o1`, `Cc1ccccc1CSc1nc2ccsc2c(=O)n1CCC(C)C` is lower in inhibition: 16.3% for the first, 5.58% for the second.

Going from `CCOc1cc(C(=O)N2CCC(c3ccncc3)CC2)cc(OCC)c1OCC` to `CCOc1ccc(NC(=O)CN2CCN(CC(=O)Nc3ccccc3OCC)CC2)cc1`, the inhibition rises from -3.62% to 4.13%.

First: COc1ccc(Cl)cc1NC(=O)CSc1nc(-c2ccco2)cc(C(F)(F)F)n1
Second: COc1ccc(Cn2ccnc2SCC(=O)NCc2ccco2)cc1
The inhibition of the first is higher: -0.221% for the first, -18.7% for the second.

Compared with `NC(=O)C1CCN(C(=O)Cn2c(-c3cccs3)cc3ccccc32)CC1`, `O=C(NCc1ccccc1F)C1CCN(c2nn3cc(-c4ccc(F)cc4)nc3s2)CC1` is lower in inhibition: 4.69% for the first, 0.928% for the second.

First: Cc1cc(C(=O)Nc2c(C)nn(Cc3ccc(F)cc3)c2C)no1
Second: Cc1ccc(NC(=O)c2sc(-n3nc(C)c(Cc4ccc5c(c4)OCO5)c3C)nc2C)cc1C
The inhibition of the first is lower: -2.04% for the first, 6.68% for the second.

First: CCOC(=O)CN1C(=O)c2cccnc2Oc2ccccc21
Second: CCOc1cc(C2c3c(-c4ccccc4O)n[nH]c3C(=O)N2Cc2cccnc2)ccc1O (centres undefined)
The inhibition of the first is lower: -2.08% for the first, 7.97% for the second.

Going from `O=C(CCCn1c(=O)c2sccc2n(Cc2cccc(Cl)c2)c1=O)NCc1ccc2c(c1)OCO2` to `Cc1ccc(CNC(=O)CCCn2c(=O)[nH]c3ccc(Br)cc3c2=O)cc1`, the inhibition rises from -2.79% to 3.2%.

Going from `CNS(=O)(=O)c1cn(CC(=O)N2CCN(c3cc(C)ccc3C)CC2)cc1S(=O)(=O)NC` to `COc1ccc(-c2onc(C)c2C)cc1S(=O)(=O)NCC1CCN(Cc2cc(C)ccc2C)CC1`, the inhibition falls from 9.24% to 6.85%.

Going from `Cc1cc(C)cc(NC(=O)CSCc2cc(=O)c3ccc(C)c(C)c3[nH]2)c1` to `Cc1cc(C)cc(-n2c(SCC(N)=O)nc3c([nH]c4ccccc43)c2=O)c1`, the inhibition falls from 20.4% to -19.5%.

First: O=c1cc(-c2ccccc2)n2c(SCc3cccc([N+](=O)[O-])c3)nnc2[nH]1
Second: Cc1ccc2cc(CN(C(=O)c3cccc(Cl)c3)c3ccccc3)c(=O)[nH]c2c1
The inhibition of the first is lower: -14.5% for the first, -13.2% for the second.

Compared with `CCC(C(=O)NCc1ccccc1Cl)n1nc(C)c2sc3ccccc3c2c1=O` (centres undefined), `CCN(CC)CCNC(=O)Cn1nc(C)c2c(C)n(-c3ccccc3)nc2c1=O` is lower in inhibition: 18% for the first, -1.79% for the second.

Compared with `COc1ccc(C2NC(=O)N(C)C3=C2C(=O)N(c2ccc(F)cc2)C3)cc1` (centres undefined), `CCOc1ccc(-n2c(SCC(=O)NC3CCCCC3)nc3c([nH]c4ccccc43)c2=O)cc1` is higher in inhibition: -4.72% for the first, 13.4% for the second.

Going from `COc1cccc(-c2noc(COc3ccccc3Cl)n2)c1` to `COc1ccc2nc(C)cc(Nc3ccc(Cl)c(Cl)c3)c2c1`, the inhibition falls from 16.3% to 6.86%.

Going from `CCC(=O)N1CCc2cc(Br)cc(S(=O)(=O)CCC(=O)NCc3cccc(OC)c3)c21` to `COc1ccccc1Nc1nn2c(=O)c3ccc(C(=O)NCCC4=CCCCC4)cc3nc2s1`, the inhibition rises from -2.02% to 3.3%.

Going from `O=C(Nc1ccccc1C(F)(F)F)N1CCC(CN2CCc3ccccc3C2)CC1` to `COc1ccccc1NC(=O)c1oc2ccccc2c1NC(=O)C1CCCCC1`, the inhibition rises from -19.4% to -11.1%.

First: O=C(NC1CC(=O)N(c2cccc(F)c2)C1)c1cc2ccccc2o1 (centres undefined)
Second: CCCCn1c(NCc2ccc(N(C)C)cc2)nc2ccccc21
The inhibition of the first is higher: 1.91% for the first, -17.4% for the second.

`CC1C(=O)N2CCCc3cc(S(=O)(=O)N4CCC(C(N)=O)CC4)cc1c32` (centres undefined) showed an inhibition of -14.5%.

In the case of `O=C(c1ccc2c(c1)OCO2)N1CCCC(c2ccccc2)C1` (centres undefined), the inhibition is reported as active: 54.6%.
With `Clc1ccc(CN2CCN(c3ncccn3)CC2)cc1Cl` the inhibition was active: 77%.
`O=C(CN1CCc2ccccc2C1)Nc1cccc(S(=O)(=O)N2CCCC2)c1` was tested, and the inhibition was active: 49.2%.
With `O=C(CSCc1cccc(Br)c1)N/N=C/c1ccc2c(c1)OCO2` the inhibition was active: 33.5%.
For `COc1ccccc1N1CCN(Cc2cc3c(cc2Br)OCCO3)CC1`, the inhibition was active: 104%.
In the case of `CCOC(=O)C1(CCc2ccccc2)CCN(C(=O)CN2CCOC2=O)CC1`, the inhibition is reported as active: 37%.
For `COc1ccc2c(c1)C=C(CN1CCC(CO)(CCc3ccccc3)CC1)CO2`, the inhibition was active: 31.5%.
`O=C(NC(=O)c1ccccc1)Nc1ccccc1O` was tested, and the inhibition was active: 40%.
